Experimental data published in PubChem BioAssay AID504339 (National Center for Advancing Translational Sciences (NCATS), 2011).
In all, about 390,000 compounds went through this assay and about 17,000 (4.4%) were called active. The shares of active, inactive and inconclusive entries below differ from those in the screen. Calls come from the whole dose curve; as a rule, active = well fitted inhibition curve with a large enough effect; inconclusive = small, poorly fitted or top-dose-only effect; inactive = no such curve, though single readings can be large or run the other way. A potency beside an inconclusive call is a rough fit, not a confirmed value.

Each compound was assayed against Lysine-specific demethylase 4A (Homo sapiens) (UniProt O75164) (assay: qHTS Assay for Inhibitors of JMJD2A-Tudor Domain). Conditions: AlphaScreen JMJD2A-Tudor / H3K4me3 peptide binding; activity change, negative = inhibition: at 114 µM (top of the series).
% is set by controls: 0 for no effect and ±100 for the full control effect; potency is the fitted concentration of half-maximal effect; tags give direction and shape of the fitted curve.
Note: nearly all actives have a fitted effect of over 50% in size.

Sequence of UniProt O75164 (O75164 whole entry, looked up, the tested form may be a part): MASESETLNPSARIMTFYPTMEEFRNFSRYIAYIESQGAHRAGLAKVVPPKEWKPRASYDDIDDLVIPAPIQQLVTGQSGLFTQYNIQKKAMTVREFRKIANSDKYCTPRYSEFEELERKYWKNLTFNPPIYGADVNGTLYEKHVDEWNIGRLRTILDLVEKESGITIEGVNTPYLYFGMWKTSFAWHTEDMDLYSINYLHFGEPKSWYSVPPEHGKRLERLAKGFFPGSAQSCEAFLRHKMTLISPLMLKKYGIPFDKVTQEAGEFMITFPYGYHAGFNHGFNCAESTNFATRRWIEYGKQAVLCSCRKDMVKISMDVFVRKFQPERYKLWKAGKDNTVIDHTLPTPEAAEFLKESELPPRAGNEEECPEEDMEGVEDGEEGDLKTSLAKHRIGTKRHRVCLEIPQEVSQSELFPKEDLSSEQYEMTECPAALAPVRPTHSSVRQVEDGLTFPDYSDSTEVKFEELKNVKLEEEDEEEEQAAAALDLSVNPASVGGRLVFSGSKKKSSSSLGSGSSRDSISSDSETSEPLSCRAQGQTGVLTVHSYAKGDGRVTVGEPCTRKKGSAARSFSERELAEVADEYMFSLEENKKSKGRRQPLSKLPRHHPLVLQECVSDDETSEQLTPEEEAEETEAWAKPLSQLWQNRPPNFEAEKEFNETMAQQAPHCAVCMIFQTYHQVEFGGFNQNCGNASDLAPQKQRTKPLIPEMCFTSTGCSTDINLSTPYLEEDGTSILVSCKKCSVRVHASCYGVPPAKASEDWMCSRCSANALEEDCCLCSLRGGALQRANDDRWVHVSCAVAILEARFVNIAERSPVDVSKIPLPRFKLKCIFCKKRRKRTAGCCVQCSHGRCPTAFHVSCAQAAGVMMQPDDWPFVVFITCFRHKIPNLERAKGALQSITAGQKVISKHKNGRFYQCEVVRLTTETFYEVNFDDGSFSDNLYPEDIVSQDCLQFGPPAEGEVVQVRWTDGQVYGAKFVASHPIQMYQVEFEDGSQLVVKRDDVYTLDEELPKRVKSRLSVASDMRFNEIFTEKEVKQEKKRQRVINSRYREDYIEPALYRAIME

Structure (SMILES)	Potency	activity change, negative = inhibition
O=S(=O)(c1cccc(Cl)c1Cl)N1CCN(C(=S)NCCCN2CCOCC2)CC1	active: 1.58 µM	
Cc1nnc(N/N=C\c2ccc(-c3ccccc3[N+](=O)[O-])o2)n1N	inconclusive: 89.1 µM [inhibitor, single point]	
Cc1cc(C(=O)COC(=O)c2ccc(Cl)c(S(N)(=O)=O)c2)c(C)n1C1CC1	inconclusive: 50.1 µM [inhibitor, partial curve]	
COc1cccc(N2C(=O)N(Cc3ccc(C#N)cc3)c3ccccc3S2(=O)=O)c1		inactive: -11%
Cc1cc(NC(=O)CCC(=O)N(CC(=O)NC2CCCC2)c2cccc(F)c2)no1	inconclusive: 0.794 µM [inhibitor, full curve]	
CCc1ccccc1NC(=O)Cn1c(=O)n(CC2CCC(C(=O)NCCc3ccccc3)CC2)c(=O)c2ccccc21 (stereo not given)	inconclusive: 89.1 µM [inhibitor, partial curve]	
COc1ccccc1NC(=O)COC(=O)C1CCCC1		inactive: -0.645%
NC(=O)C1CCN(C(c2ccccc2F)c2nnnn2Cc2ccco2)CC1 (stereo not given)		inactive: -26.6%
Cc1ccccc1NC(=O)c1ccc2c(c1)C(=O)N(CC(C)C)C2=O		inactive: -0.685%
CC(C)=CCc1c2c(c(O)c3c(=O)c4c(oc13)-c1cc(O)c(O)cc1OC4C=C(C)C)C=CC(C)(C)O2 (stereo not given)	active: 35.5 µM	
Cc1ccc(N2C(N)=C(C#N)C(c3ccsc3)C3=C2CC(C)(C)CC3=O)cc1 (stereo not given)		inactive: -30.3%
CNC(=S)/N=C(/Nc1ccccc1)c1ccccc1		inactive: -18.3%
CCn1c(SCC(=O)N2CCc3ccccc32)nnc1-c1ccncc1	inconclusive: 100 µM [inhibitor, single point]	
COc1ccc(CN2CCN(S(=O)(=O)c3ccc(F)cc3)CC2)cc1OC	active: 3.16 µM	
Cc1nc(-c2ccc(S(=O)(=O)N3CCCN(CCc4ccccc4)CC3)s2)cs1	inconclusive: 28.2 µM [inhibitor, full curve]	
CN(Cc1c(O)ccc2c1oc(=O)c1ccccc12)C1CCCCC1	active: 3.98 µM	
COc1ccc(-c2[nH]ncc2N=Nc2cc(C)cc(C)c2)cc1		inactive: -19.5% [at 11.4 µM]
Cc1ccc2cc3cc(C(=O)NCCCN4CCCC4)oc3nc2c1	inconclusive: 63.1 µM [inhibitor, partial curve, poor fit]	
CN1C(C(=O)Nc2ccccn2)=C(O)c2sccc2S1(=O)=O	active: 50.1 µM	
Oc1c(C=Nc2ccccc2Cl)[nH]c2ccccc12	inconclusive: 14.1 µM [inhibitor, full curve, poor fit]	
Cc1ccccc1C(OCCN(C)C)C1CCCCC1 (stereo not given)	inconclusive: 2 µM [inhibitor, partial curve, poor fit]	
CCn1c(=O)c2cc(C(=O)N(C)c3ccc(OC)cc3OC)sc2c2ccccc21	inconclusive: 50.1 µM [inhibitor, partial curve]	
O=C(C(=O)N1CCN(c2ccccc2)CC1)c1cn(CC(=O)N2CCCCCC2)c2ccccc12	inconclusive: 35.5 µM [inhibitor, partial curve]	
COCCCN1C(=O)C(=O)/C(=C(/O)c2ccccc2)C1c1ccc(N(C)C)cc1 (stereo not given)	inconclusive: 89.1 µM [inhibitor, single point]	

Structure (SMILES)	Potency	activity change, negative = inhibition
Cc1ccc(C)c(Nc2ncnc(N)c2[N+](=O)[O-])c1		inactive: -17.6%
Nc1c(Cl)ncnc1N/N=C/c1ccc(O)cc1		inactive: -17.5%
Cc1ccc(C)c(NC(=O)Cn2c(=O)nc(-c3ccccc3)c3ccccc32)c1		inactive: -15.6%
Cc1cccc(NS(=O)(=O)c2ccc3c(c2)[C@H]2C=CC[C@H]2[C@@H](c2ccc(F)cc2)N3)c1	inconclusive: 35.5 µM [inhibitor, partial curve]	
CCCOc1ccc(-c2nn(-c3ccccc3)cc2C2NC(=O)NC(C)=C2C(=O)OC)cc1 (stereo not given)	inconclusive: 39.8 µM [inhibitor, partial curve]	
Cc1ccc(Nc2nc(N)nc(CN3CCN(Cc4ccc5c(c4)OCO5)CC3)n2)cc1	inconclusive: 79.4 µM [inhibitor, single point]	
Cc1cccc(-n2c(-c3ccccc3)c[nH]c2=S)c1C	inconclusive: 20 µM [inhibitor, full curve]	
COc1ccc(Oc2cn[nH]c2-c2ccc(OCC(=O)NN)cc2O)cc1	inconclusive: 50.1 µM [inhibitor, partial curve]	
Cc1ccc(C)c(N2CCN(C(=O)c3cc4c(=O)n(Cc5ccco5)ccc4nc3C)CC2)c1	inconclusive: 56.2 µM [inhibitor, partial curve]	
Cc1cc(NCCCn2ccnc2)n2ncc(-c3ccc(Cl)cc3)c2n1	inconclusive: 79.4 µM [inhibitor, partial curve]	
Cc1ccc2c(c1)S/C(=C/c1ccc[n+](C)c1)N2CCO	active: 25.1 µM	
O=c1[nH]c2cc3c(cc2cc1CN(Cc1ccccc1)Cc1nnnn1Cc1ccco1)OCCO3	inconclusive: 63.1 µM [inhibitor, partial curve, poor fit]	
O=[N+]([O-])c1cc(Br)cc(C=Nc2ccc3c(c2)OCO3)c1O	inconclusive: 50.1 µM [inhibitor, partial curve]	
Cc1c(Cl)cccc1NC(=O)CNC(=O)C1CC(=O)N(CCc2ccccc2)C1 (stereo not given)	inconclusive: 89.1 µM [inhibitor, single point]	
Cc1cccc(CN2CCCC(C(=O)c3ccc4c5c(cccc35)CC4)C2)n1 (stereo not given)	inconclusive: 100 µM [inhibitor, single point]	
Cc1nn(C)c2c1c(-c1ccccc1)cc(=O)n2Cc1ccccc1Cl		inactive: 28.7%
COc1cccc(N2CCN(C(=O)C3CCN(S(=O)(=O)c4cccc5nonc45)CC3)CC2)c1	inconclusive: 89.1 µM [inhibitor, single point]	
O=[N+]([O-])c1ccc(N2CCN(c3ccc(O)cc3)CC2)cn1	inconclusive: 35.5 µM [inhibitor, single point]	
CCN(CC)CCOc1cccc(C(C)C)c1	active: 6.31 µM	
COc1ccc(CCNC(=O)c2nnn(CC(=O)Nc3cccc(F)c3)c2N)cc1OC	inconclusive: 79.4 µM [inhibitor, partial curve]	
CN(C)/C=C/C(=O)c1ccc2noc(-c3ccccc3)c2c1	inconclusive: 89.1 µM [inhibitor, partial curve]	
Nc1nc(-c2ccc3c(c2)NC(=O)CO3)cs1	inconclusive: 79.4 µM [inhibitor, partial curve]	
CCc1ccccc1NC(=O)N1CCC(CN2CCc3ccccc3C2)CC1		inactive: 6.27%
COCCN1C(=O)N[C@@H](c2cccc(C(F)(F)F)c2)C(C(=O)OC)=C1C	inconclusive: 25.1 µM [inhibitor, partial curve]	

Structure (SMILES)	Potency	activity change, negative = inhibition
CCn1c(SCC(=O)N/N=C/C(C)=C/c2ccco2)nnc1-c1ccccc1	inconclusive: 56.2 µM [inhibitor, partial curve]	
Cc1ccc(NC(=O)COC(=O)Cn2ccc(=O)[nH]c2=O)cc1C		inactive: -5.26%
CC(C)(CNc1ccc(C(F)(F)F)cc1[N+](=O)[O-])N1CCOCC1	inconclusive: 44.7 µM [inhibitor, partial curve]	
CCCCn1c(-c2ccc(OC)cc2)nc2c(=O)n(C)c(=O)[nH]c21	inconclusive: 12.6 µM [inhibitor, full curve]	
Nc1n[nH]c(C2CC2)c1N=Nc1ccc(Cl)c(Cl)c1	inconclusive: 63.1 µM [inhibitor, partial curve, poor fit]	
COc1ccc(NC(=O)c2cc(S(=O)(=O)N3CCc4ccccc43)cn2C)cc1OC	inconclusive: 50.1 µM [inhibitor, full curve]	
COc1cccc(CNC(=O)CCNS(=O)(=O)c2ccc(Br)s2)c1	inconclusive: 25.1 µM [inhibitor, single point]	
O=C(O)CC(NCc1ccco1)C(=O)OCC1CCCO1 (stereo not given)	inconclusive: 28.2 µM [inhibitor, single point]	
Cc1oc(-c2ccccc2)cc1C(=O)Nc1ccc(N(C)C)cc1	active: 50.1 µM	
CC(=O)c1c(N2CCN(C)CC2)nc(=S)n(-c2cc(C)ccc2C)c1C	inconclusive: 6.31 µM [inhibitor, partial curve]	
S=c1[nH]nc(COc2ccccc2)n1/N=C/c1ccccc1Cl	active: 56.2 µM	
CCCOc1ccc(NC(=O)C2CCCNC2=O)cc1 (stereo not given)	inconclusive: 89.1 µM [inhibitor, single point]	
CCOc1cccc(C(=O)N(Cc2ccc(N(C)C)cc2)CC2CCCO2)c1 (stereo not given)	inconclusive: 50.1 µM [inhibitor, partial curve]	
CCc1ccc(CNCc2c(C(=O)O)c(C)n(Cc3c(F)cccc3Cl)c2C)cc1	inconclusive: 70.8 µM [inhibitor, single point]	
c1ccc(COc2cccc(CN3CCCCC3)c2)cc1	active: 25.1 µM	
CCN1CCc2c(sc(N)c2C(N)=O)C1	inconclusive: 56.2 µM [inhibitor, partial curve]	
Nc1nnnn1/N=C/c1ccccc1	inconclusive: 39.8 µM [inhibitor, partial curve]	
COc1ccc(C(=O)Nc2ccc(S(=O)(=O)Nc3nccc(C)n3)cc2)cc1[N+](=O)[O-]		inactive: -1.66%
O=C(Nc1ccc(-c2ccc3nncn3n2)cc1)c1ccc(Br)o1		inactive: -15.4%
COC(=O)c1ccc(NC(=O)c2ccccc2N(C)S(=O)(=O)c2ccccc2)cc1		inactive: -19.2% [at 11.4 µM]
C=CCn1c(SCC(=O)c2cccs2)nc2sc(C)cc2c1=O		inactive: -11.1%
Cc1cc(N/N=C/c2ccccc2O)c2ccccc2n1	inconclusive: 56.2 µM [inhibitor, partial curve, poor fit]	
